ETS1 binding intensity data for 62 sequences are collected here from the supplement of paper PMC10681739.

The full ranking holds about 2,700 sequences; the median of “arbitrary fluorescence units” is about 4,100, and the highest 2% start at about 54,000. Some of the results follow.

The experiment deals with T1, ETS1 (UniProt P14921).
T1 sequence: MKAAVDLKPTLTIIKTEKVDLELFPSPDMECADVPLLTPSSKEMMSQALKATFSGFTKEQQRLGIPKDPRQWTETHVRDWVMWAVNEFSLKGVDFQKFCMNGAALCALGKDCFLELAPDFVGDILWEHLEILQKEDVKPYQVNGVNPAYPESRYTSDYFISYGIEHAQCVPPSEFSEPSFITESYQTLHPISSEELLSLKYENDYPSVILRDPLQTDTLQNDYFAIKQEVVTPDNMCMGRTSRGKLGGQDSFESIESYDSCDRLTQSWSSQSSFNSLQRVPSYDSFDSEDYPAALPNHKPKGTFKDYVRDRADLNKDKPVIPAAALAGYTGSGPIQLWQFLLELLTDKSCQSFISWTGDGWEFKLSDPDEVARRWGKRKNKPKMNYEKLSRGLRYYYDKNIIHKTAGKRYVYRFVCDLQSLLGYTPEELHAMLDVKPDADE
The experiment can be described thus: ETS1 binding intensity (PBM fluorescence) (arbitrary fluorescence units); higher = stronger binding. As to conditions: ETS1 concentration 10 nM. The procedure: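 gcPBM on wild-type 36-bp genomic probes with two neighbouring ETS1 sites (4-24 bp apart). Recombinant human ETS1 (10 nM) was detected with anti-ETS1 antibody fluorescence. Values are medians over 3 replicate spots. The probes sit in constant array flanks that are not printed.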
The sequence GCGCAGCGGAACCTCCCGGCTCCAGGTTCCGGTTTC came in with an ETS1 binding intensity of 537. Sequence CCACCATGACTTCCTTCAGCACTTCCTGTCTAGAGC gave an ETS1 binding intensity of 24000. The result for CCCGGGCTTTTCCTGCGGAGCTCAGGAAGCCGGCCT reads 1470; that for TGAGAGCAGAGCAGGAAACGGGAAGAACCATTCTCT, 1540; that for ACACCTTCCGGCAGATGTGGGGCGATGAGGAAGTTG, 16100. AGTTCTGACTTCCTGCTGAAGGCTTCCTCACATTGA showed an ETS1 binding intensity of 20200. For ACCTGCATTCTACTTCCTGTTTCCTACTTTAAAGTG, the ETS1 binding intensity was 31700. GTCACCACATCCTGAGGCTTCTCATTTCCTTTCTAC displayed an ETS1 binding intensity of 6290. On to CTGCTGGCAGGGAGGAAGCAGGAAATTAAACGGTGT, for which the ETS1 binding intensity stood at 1260.

In turn, TCGGCCGGAAGCGGAGGGAGCGCTGCTTCCGGAGTC had an ETS1 binding intensity of 15800. The sequence CATCAACAGGAAGTGGCAGGGCCAGGATGGACTTGA came in with an ETS1 binding intensity of 17200.

Sequence TGCAAAGCATCCTGGGTGCCAGGCTTCCTGGGGCTT displayed an ETS1 binding intensity of 1890. Sequence CTCTTGAAAGCTTCCGAGGAGAGGAAACGTACTTCA returned an ETS1 binding intensity of 256. The result for ACCACATCCTCCCCCACAGCCCTCAGGAGGAAGCGG reads 9350; that for CGAGGGCGGGGACTTCCCCAGGAAGCGGGGACCCAC, 448. Consider CCGCGCCCCTTCCGCGCAGTCTCCTTCCGCGTCACC, for which the ETS1 binding intensity worked out at 761.

In turn, AGAACGTTTCCGCGGCCTGCCTGTCTTCCGGGCCTT gave an ETS1 binding intensity of 2910. GACTACGTTTCCTTGGCCTTAGAAGGAAACAGCCAC gave an ETS1 binding intensity of 615. For TTCTACATCCTGCTTCTTATAGGACCCGGAAGAGGA, the ETS1 binding intensity was 28000.

For AAGAGGAAACAGGTGTGTAAAGCCAGGCTTCCTCTC, the ETS1 binding intensity amounted to 208. AATTCAGGAAACAACAGATGCTGGAGAGGATGTGGA: the ETS1 binding intensity was 405. Take CTACAGGAAGTCACGACAGACAACAGAGGAAGTCCA: the ETS1 binding intensity was 10600.

As for ACCGAGGGGAAGTTGGGGTACCGGTTTCCGCCGCCA, the ETS1 binding intensity amounted to 1300. TTTTCTCCCTCACTTCCGCTTCCGCCTCGGCTCAGC had an ETS1 binding intensity of 34300. As for TCGCTGAGCAGGAAAAGCTAGTTTCCGCCGTCTGGG, the ETS1 binding intensity is 1640. CTTTAATCCGGTTTCTTCTCCCCTCTGGGAAGTTTC gave an ETS1 binding intensity of 2590. GCAGAGGAAGCCTCTCCACGGCTGGACTTCCTACCG registered an ETS1 binding intensity of 258. Sequence TCCCGCCCCCGGCCGGAAGTTCCGGCGGCGGAGCTG displayed an ETS1 binding intensity of 14900. For the sequence GAAATAGGAAGTGAATGTGAAAGCCTAGGATGTTAC, the ETS1 binding intensity was found to be 2210.

Take GTAGTCCGCCGTTCCGCCGCGCTTCCGGACACGTCC: the ETS1 binding intensity was determined as 2920. In the case of TAATTGGGGAAGTGGTTTTGGGGACAGGAAGCCAGT, the ETS1 binding intensity is 487. The result for CCCGCATCCGCTGCGGGAGTCCGAGCCGGAACCACA reads 19800.

For the sequence GCAGTACGGGAAATAAACACACACAGGAAGTCGTTT, the ETS1 binding intensity was determined as 2620.

ATTCTCATCCTGTTAGTCATTCAACAGGAATGATTT: the ETS1 binding intensity is 7490. In turn, CGCGACTTCCGTGCAGCCCTAGCCACTTCCGGCGCG had an ETS1 binding intensity of 21700. For the sequence CGGGACCGGAAGTGACGCAGAGAAGTTTCCGGGACT, the ETS1 binding intensity is 56800. TTTCTCCTTCCTGATCCCAATTTTCAGGAAGCTCAC had an ETS1 binding intensity of 1310. Sequence TTTTTTTTCTTCCTGCTAAGAACAGGAAATTGCAGA displayed an ETS1 binding intensity of 3580. CCCACCAGGAAACCAGCACACCTGGCTTCCTTCTTT gave an ETS1 binding intensity of 638. On to GAGGGTAACTTCCTGTTTCTGCCTTCCGGGTTTGAG, for which the ETS1 binding intensity was found to be 47100. CAGGCAGGAAACACCTGTCTGGTGGCTTCCTGTGAC yielded an ETS1 binding intensity of 5170. For the sequence TTGCAGCCTTTTCCGGGCGGCTTTTCCGCGCAGGCG, the ETS1 binding intensity is 3280. Sequence TAAAAAGGAAACAACAGGTGCTGGAGAGGATGTGGA displayed an ETS1 binding intensity of 222. Then TTTAGGTGTTTCCTGGTTAGTGACTTCCTCTTTGCA, with 7310; and TCATACCGCGGCCGGAAACCGGAAGCGCCCGCCGGG, with 11900.

ACTGACAGGAAATAAATAATAAAAAGGGAAATGCAC showed an ETS1 binding intensity of 10100.

In the case of CTGCCGGAAGTTGGGGCGGTGCCTTCGCTTCCGCGG, the ETS1 binding intensity turned out to be 16300. Then GGGTTGGGAAAGTTTCCTCTTTCCGCCGTTTGGAAT, with 1760; and TTACCGCCACTTCCGGGGGCGCAGGAAATGCGCGTT, with 35600. CGGGCGGAAAGGGAGCTAGAGCATTCTGGGAAATGG: the ETS1 binding intensity worked out at 178.

In turn, CGTGGCAGGATGTGGTTGACCTGAACTTCCTGTGAA registered an ETS1 binding intensity of 7490. Regarding GAGCCCAGGAAGGAGGCTCCGCTGGTTCCGCTGGGT, the ETS1 binding intensity came out at 264. As for CCGGTTCCGGCCAGGAACGGGAAGTGCCTCATTATA, the ETS1 binding intensity came to 8430. GGACCGGAAGTGCCTCCTGCGGAGGCAGGAAGTCCC registered an ETS1 binding intensity of 58700. For GTCACAACACAGGATGTTGCGAGGAAACAAGGGTGG, the ETS1 binding intensity turned out to be 4890. For CCCAGCCTGCCATCCTGTCAGAGGAAATGAAATGTA, the ETS1 binding intensity amounted to 2820.

Regarding GCGGCCTTCCTGGGGACAGATGATAACATCCTGTTC, the ETS1 binding intensity was determined as 4570. In turn, ACCCGTGAGGATGTGGGGGTTGAAAGGAAACAGTGT yielded an ETS1 binding intensity of 387.

The sequence CCTGTCACTTCCTGGACGCTGGTCAGGAAGCTGTGG returned an ETS1 binding intensity of 13500. With CGTCCGCGATGGCGGAAGCGGAAACGCGCGGAGGCG, the ETS1 binding intensity turned out to be 4190.

Take TCAACAGGAACTTAGAGGCGCAGGCCCGGAAAAGGC: the ETS1 binding intensity worked out at 397. Consider ATTGCCAACAGGAAAACCATCACTTCCTGCCTTATT, for which the ETS1 binding intensity was 6780.
